# Results taken from the supplement of paper PMC8728848.
# This is one part of the list.
# B1: PX9961H-bth-557-24-557 (Bacteroides thetaiotaomicron) (protein)
# chain: EETRTEVEKKNYMNNAEEAKDVLLGVYRTNTLDAMYGYYLSILFNLGTDISQVEGSGNENFRIIPTNSFPTTQSEVQQTWAALYTGIYRANDFLERISNKIGSYTTTDKKLATLYIAEARALRGMFYFELVRRFGNVVLMTSTQMSNQNPATYVQSAPEKVYEYIEDDLLYACDILPYATDDQYRESNDYRFSKGAALGLLTKVYATWAGYPVKDESKWEAAAKTARILVESGKHGLLKDYEQLWKNTCNGTWDPTESLIEISFYSPTVSGNSDPVGRIGKWNGVKTTAIAGVRGSCAANVKVVHTFVLDWREDVSDIRRDLSIANYQYTDTKKSLWVAGASDTDESAAEKDADPTKAQKNKQNYTPAKWDIQKYVTTNSFINNDKSNVNWYFLRYADVLLLYAEALNEWKHGPDAEAYNAINAVRRRGYGNPSNTSACDLPQGLDETSFREAVRKERSYELSFEGHRRQDLIRWGIYYKTVQATAKELGYWWEGTGSPNYSVATYTEEGKHELFPIPQRDMDLCIQFNQNPKW
# Experiments:
# Experiment in all cases: glycan array binding signal (z-score within array); higher = stronger binding
# Details in all cases: glycan notation: IUPAC condensed, linker removed
# [1] = molecular target: Neu5Ac(a2-3)Gal(b1-4)GlcNAc(b1-3)Gal(b1-4)GlcNAc(b1-3)Gal(b1-4)GlcNAc
# Method in brief: (§1)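 Columns mapping to the same glycan were averaged after glycan names were converted to IUPAC-condensed notation. The data come from 3228 arrays in the Consortium for Functional Glycomics database, limited to those with an available protein sequence. Binding is reported as a within-array Z-score averaged across arrays of one protein sequence and across linkers.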
# [2] = molecular target: Neu5Ac(a2-3)Gal(b1-4)GlcNAc(b1-3)Gal(b1-4)GlcNAc(b1-3)Gal(b1-4)GlcNAc(b1-2)Man(a1-3)[Neu5Ac(a2-3)Gal(b1-4)GlcNAc(b1-3)Gal(b1-4)GlcNAc(b1-3)Gal(b1-4)GlcNAc(b1-2)Man(a1-6)]GalNAc
# Method in brief: as §1
# [3] = molecular target: Neu5Ac(a2-3)Gal(b1-4)GlcNAc(b1-3)Gal(b1-4)GlcNAc(b1-3)GalNAc
# Method in brief: as §1
# [4] = molecular target: Neu5Ac(a2-3)Gal(b1-4)GlcNAc(b1-3)Gal(b1-4)GlcNAc(b1-3)[Neu5Ac(a2-3)Gal(b1-4)GlcNAc(b1-3)Gal(b1-4)GlcNAc(b1-6)]GalNAc
# Method in brief: as §1
# [5] = molecular target: Neu5Ac(a2-3)Gal(b1-4)GlcNAc(b1-3)Gal(b1-4)GlcNAc(b1-6)[Gal(b1-3)]GalNAc
# Method in brief: as §1
# [6] = molecular target: Neu5Ac(a2-3)Gal(b1-4)GlcNAc(b1-3)Gal(b1-4)[Fuc(a1-3)]GlcNAc
# Method in brief: as §1
# [7] = molecular target: Neu5Ac(a2-3)Gal(b1-4)GlcNAc(b1-3)GalNAc
# Method in brief: as §1
# [8] = molecular target: Neu5Ac(a2-3)Gal(b1-4)GlcNAc(b1-3)[Neu5Ac(a2-3)Gal(b1-4)GlcNAc(b1-6)]GalNAc
# Method in brief: as §1
# [9] = molecular target: Neu5Ac(a2-3)Gal(b1-4)GlcNAc(b1-6)GalNAc
# Method in brief: as §1
# [10] = molecular target: Neu5Ac(a2-3)Gal(b1-4)GlcNAc(b1-6)[Gal(b1-3)]GalNAc
# Method in brief: as §1
# [11] = molecular target: Neu5Ac(a2-3)Gal(b1-4)GlcNAc(b1-6)[Neu5Ac(a2-3)Gal(b1-3)]GalNAc
# Method in brief: as §1
# [12] = molecular target: Neu5Ac(a2-3)Gal(b1-4)GlcNAc6S
# Method in brief: as §1
# [13] = molecular target: Neu5Ac(a2-3)Gal(b1-4)[Fuc(a1-3)]GlcNAc
# Method in brief: as §1
# [14] = molecular target: Neu5Ac(a2-3)Gal(b1-4)[Fuc(a1-3)]GlcNAc(b1-2)Man
# Method in brief: as §1
# [15] = molecular target: Neu5Ac(a2-3)Gal(b1-4)[Fuc(a1-3)]GlcNAc(b1-3)Gal
# Method in brief: as §1
# [16] = molecular target: Neu5Ac(a2-3)Gal(b1-4)[Fuc(a1-3)]GlcNAc(b1-3)Gal(b1-4)GlcNAc
# Method in brief: as §1
# [17] = molecular target: Neu5Ac(a2-3)Gal(b1-4)[Fuc(a1-3)]GlcNAc(b1-3)Gal(b1-4)[Fuc(a1-3)]GlcNAc(b1-3)Gal(b1-4)[Fuc(a1-3)]GlcNAc
# Method in brief: as §1
# [18] = molecular target: Neu5Ac(a2-3)Gal(b1-4)[Fuc(a1-3)]GlcNAc(b1-3)GalNAc
# Method in brief: as §1
# [19] = molecular target: Neu5Ac(a2-3)Gal(b1-4)[Fuc(a1-3)]GlcNAc(b1-6)[Gal(b1-3)]GalNAc
# Method in brief: as §1
# [20] = molecular target: Neu5Ac(a2-3)Gal(b1-4)[Fuc(a1-3)]GlcNAc(b1-6)[Neu5Ac(a2-3)Gal(b1-3)]GalNAc
# Method in brief: as §1
# [21] = molecular target: Neu5Ac(a2-3)Gal(b1-4)[Fuc(a1-3)]GlcNAc6S
# Method in brief: as §1
# [22] = molecular target: Neu5Ac(a2-3)Gal6S(b1-4)GlcNAc
# Method in brief: as §1
# [23] = molecular target: Neu5Ac(a2-3)Gal6S(b1-4)[Fuc(a1-3)]GlcNAc
# Method in brief: as §1
# [24] = molecular target: Neu5Ac(a2-3)GalNAc
# Method in brief: as §1
# [25] = molecular target: Neu5Ac(a2-3)GalNAc(b1-4)GlcNAc
# Method in brief: as §1
# [26] = molecular target: Neu5Ac(a2-3)[GalNAc(b1-4)]Gal(b1-4)Glc
# Method in brief: as §1
# [27] = molecular target: Neu5Ac(a2-3)[GalNAc(b1-4)]Gal(b1-4)GlcNAc
# Method in brief: as §1
# [28] = molecular target: Neu5Ac(a2-3)[GalNAc(b1-4)]Gal(b1-4)GlcNAc(b1-3)GalNAc
# Method in brief: as §1
# [29] = molecular target: Neu5Ac(a2-3)[Neu5Ac(a2-6)]GalNAc
# Method in brief: as §1
# [30] = molecular target: Neu5Ac(a2-6)Gal
# Method in brief: as §1
# [31] = molecular target: Neu5Ac(a2-6)Gal(b1-3)GlcNAc(b1-3)[Gal(b1-4)GlcNAc(b1-6)]Gal(b1-4)Glc
# Method in brief: as §1
# [32] = molecular target: Neu5Ac(a2-6)Gal(b1-4)Glc
# Method in brief: as §1
# [33] = molecular target: Neu5Ac(a2-6)Gal(b1-4)GlcNAc
# Method in brief: as §1
# [34] = molecular target: Neu5Ac(a2-6)Gal(b1-4)GlcNAc(b1-2)Man
# Method in brief: as §1
# [35] = molecular target: Neu5Ac(a2-6)Gal(b1-4)GlcNAc(b1-2)Man(a1-3)Man(b1-4)GlcNAc(b1-4)GlcNAc
# Method in brief: as §1
# [36] = molecular target: Neu5Ac(a2-6)Gal(b1-4)GlcNAc(b1-2)Man(a1-3)[Gal(b1-4)GlcNAc(b1-2)Man(a1-6)]Man(b1-4)GlcNAc(b1-4)GlcNAc
# Method in brief: as §1
# [37] = molecular target: Neu5Ac(a2-6)Gal(b1-4)GlcNAc(b1-2)Man(a1-3)[GlcNAc(b1-2)Man(a1-6)]Man(b1-4)GlcNAc(b1-4)GlcNAc
# Method in brief: as §1
# [38] = molecular target: Neu5Ac(a2-6)Gal(b1-4)GlcNAc(b1-2)Man(a1-3)[GlcNAc(b1-4)][Neu5Ac(a2-6)Gal(b1-4)GlcNAc(b1-2)Man(a1-6)]Man(b1-4)GlcNAc(b1-4)GlcNAc
# Method in brief: as §1
binder,measurement,setting,value
B1,glycan array binding signal (z-score),[1],0.149
same,glycan array binding signal (z-score),[2],0.048
same,glycan array binding signal (z-score),[3],0.076
same,glycan array binding signal (z-score),[4],0.001
same,glycan array binding signal (z-score),[5],-0.144
same,glycan array binding signal (z-score),[6],-0.27
same,glycan array binding signal (z-score),[7],-0.024
same,glycan array binding signal (z-score),[8],-0.467
same,glycan array binding signal (z-score),[9],-0.505
same,glycan array binding signal (z-score),[10],-0.448
same,glycan array binding signal (z-score),[11],-0.64
same,glycan array binding signal (z-score),[12],-0.48
same,glycan array binding signal (z-score),[13],-0.576
same,glycan array binding signal (z-score),[14],-0.138
same,glycan array binding signal (z-score),[15],-0.245
same,glycan array binding signal (z-score),[16],0.014
same,glycan array binding signal (z-score),[17],-0.227
same,glycan array binding signal (z-score),[18],-0.392
same,glycan array binding signal (z-score),[19],0.835
same,glycan array binding signal (z-score),[20],1.13
same,glycan array binding signal (z-score),[21],-0.214
same,glycan array binding signal (z-score),[22],-0.532
same,glycan array binding signal (z-score),[23],-0.729
same,glycan array binding signal (z-score),[24],-0.217
same,glycan array binding signal (z-score),[25],-0.348
same,glycan array binding signal (z-score),[26],0.293
same,glycan array binding signal (z-score),[27],-0.571
same,glycan array binding signal (z-score),[28],-0.338
same,glycan array binding signal (z-score),[29],-0.556
same,glycan array binding signal (z-score),[30],-0.101
same,glycan array binding signal (z-score),[31],-0.088
same,glycan array binding signal (z-score),[32],-0.393
same,glycan array binding signal (z-score),[33],-0.248
same,glycan array binding signal (z-score),[34],-0.461
same,glycan array binding signal (z-score),[35],-0.496
same,glycan array binding signal (z-score),[36],0.436
same,glycan array binding signal (z-score),[37],0.077
same,glycan array binding signal (z-score),[38],-0.374
